19 molecules from patent publication US8933016B2, “Metallodrugs having improved pharmacological properties and methods of manufacture and use thereof” (priority 2012, dated 2015) can be followed below.

Converted amounts (≈) assume the structure as drawn. Ends that are not written are not given here. Peptide text beside a SMILES is read from it. * marks the point of attachment. X4 = COCCOCCOCCOCCOCCOCCOCCOCCOCCOCCOCCOCCOCCOCCOCCOCCOCCOCCOCCOCCOCCOCCOCCOCCOCCOCCOCCOCCOCCOCCOCCOCCOCCOCCOCCOCCOCCOCCOCCOCCOCCOCCOCCOCCOCCOCCOCCOCCNC(=O)CCN1C(=O)CC(*)C1=O; X3 = COCCOCCOCCOCCOCCOCCOCCOCCOCCOCCOCCOCCOCCOCCOCCOCCOCCOCCOCCOCCOCCOCCOCCOCCOCCOCCOCCOCCOCCOCCOCCOCCOCCOCCOCCOCCNC(=O)CCN1C(=O)CC(*)C1=O; X2 = COCCOCCOCCOCCOCCOCCOCCOCCOCCOCCOCCOCCOCCOCCOCCOCCOCCOCCOCCOCCOCCOCCOCCOCCNC(=O)CCN1C(=O)CC(*)C1=O; X1 = COCCOCCOCCOCCOCCOCCOCCOCCOCCOCCOCCOCCNC(=O)CCN1C(=O)CC(*)C1=O

The first assay concerns S. enteric, 6539 (Se).
Details: not given
Consider `CC(C)C[C@H](NC(=O)[C@H](CCCNC(=N)N)NC(=O)[C@H](CCC(N)=O)NC(=O)[C@H](CCCCN)NC(=O)[C@@H](NC(=O)[C@H](CCCCN)NC(=O)[C@H](CCCNC(=N)N)NC(=O)[C@H](CC(C)C)NC(=O)[C@H](CC(N)=O)NC(=O)[C@H](Cc1ccccc1)NC(=O)[C@H](Cc1ccccc1)NC(=O)[C@H](CC(C)C)NC(=O)[C@H](CCCCN)NC(=O)[C@H](CCCNC(=N)N)NC(=O)[C@H](CCC(N)=O)NC(=O)CNC(=O)[C@H](Cc1c[nH]cn1)NC(=O)CNC(=O)CN)[C@@H](C)O)C(=O)NCC(=O)N[C@@H](Cc1c[nH]c2ccccc12)C(=O)N[C@@H](Cc1ccccc1)C(=O)N[C@@H](CC(N)=O)C(=O)N[C@@H](CCC(N)=O)C(=O)N[C@@H](CS)C(=O)O` [PEP 192], for which the “MIC Se” value was found to be 10.6 µM (≈ 32 µg/mL). As to `CC[C@H](C)[C@H](NC(=O)[C@H](CCCCN)NC(=O)[C@H](Cc1c[nH]c2ccccc12)NC(=O)[C@H](CCCNC(=N)N)NC(=O)[C@H](CCCNC(=N)N)NC(=O)[C@H](Cc1c[nH]cn1)NC(=O)CNC(=O)CN)C(=O)N[C@H](C(=O)N[C@H](C(=O)N[C@H](C(=O)N[C@@H](CCCNC(=N)N)C(=O)N[C@@H](Cc1c[nH]c2ccccc12)C(=O)N[C@@H](CCCNC(=N)N)C(=O)N[C@@H](CCCNC(=N)N)C(=O)NCC(=O)NCC(=O)N[C@@H](CSC1CC(=O)N(CCC(=O)NCCOCCOCCOCCOCCOCCOCCOCCOCCOCCOCCOCCOC)C1=O)C(=O)O)[C@@H](C)CC)C(C)C)C(C)C` (stereo partly shown) [PEP 314 PEG 12] (H-GGHRRWKIVVIRWRRGGC(X1)-OH; C-terminus assumed), the “MIC Se” value was 5.5 µM (≈ 16 µg/mL). Same read-out and setting: with `CC[C@H](C)[C@H](NC(=O)[C@H](CCCCN)NC(=O)[C@H](Cc1c[nH]c2ccccc12)NC(=O)[C@H](CCCNC(=N)N)NC(=O)[C@H](CCCNC(=N)N)NC(=O)[C@H](Cc1c[nH]cn1)NC(=O)CNC(=O)CN)C(=O)N[C@H](C(=O)N[C@H](C(=O)N[C@H](C(=O)N[C@@H](CCCNC(=N)N)C(=O)N[C@@H](Cc1c[nH]c2ccccc12)C(=O)N[C@@H](CCCNC(=N)N)C(=O)N[C@@H](CCCNC(=N)N)C(=O)NCC(=O)NCC(=O)N[C@@H](CSC1CC(=O)N(CCC(=O)NCCOCCOCCOCCOCCOCCOCCOCCOCCOCCOCCOCCOCCOCCOCCOCCOCCOCCOCCOCCOCCOCCOCCOCCOC)C1=O)C(=O)O)[C@@H](C)CC)C(C)C)C(C)C` (stereo partly shown) [PEP 314 PEG 24] (H-GGHRRWKIVVIRWRRGGC(X2)-OH; C-terminus assumed) the figure was 9.3 µM (≈ 31.9 µg/mL); with `CC[C@H](C)[C@H](NC(=O)[C@H](Cc1c[nH]cn1)NC(=O)CNC(=O)CN)C(=O)N[C@@H](CCCNC(=N)N)C(=O)N[C@@H](CCCNC(=N)N)C(=O)N[C@H](C(=O)N[C@H](C(=O)N[C@@H](CCCNC(=N)N)C(=O)N[C@@H](CCCCN)C(=O)N[C@H](C(=O)N[C@H](C(=O)N[C@@H](Cc1c[nH]cn1)C(=O)N[C@H](C(=O)N[C@H](C(=O)N[C@@H](CCCCN)C(=O)N[C@@H](CCCCN)C(=O)NCC(=O)NCC(=O)N[C@@H](CSC1CC(=O)N(CCC(=O)NCCOCCOCCOCCOCCOCCOCCOCCOCCOCCOCCOCCOC)C1=O)C(=O)O)[C@@H](C)CC)[C@@H](C)CC)[C@@H](C)CC)[C@@H](C)CC)[C@@H](C)CC)[C@@H](C)CC` (stereo partly shown) [PEP 318 PEG 12] (H-GGHIRRIIRKIIHIIKKGGC(X1)-OH; C-terminus assumed), 5.4 µM (≈ 16.1 µg/mL); with `CC[C@H](C)[C@H](NC(=O)[C@H](Cc1c[nH]cn1)NC(=O)CNC(=O)CN)C(=O)N[C@@H](CCCNC(=N)N)C(=O)N[C@@H](CCCNC(=N)N)C(=O)N[C@H](C(=O)N[C@H](C(=O)N[C@@H](CCCNC(=N)N)C(=O)N[C@@H](CCCCN)C(=O)N[C@H](C(=O)N[C@H](C(=O)N[C@@H](Cc1c[nH]cn1)C(=O)N[C@H](C(=O)N[C@H](C(=O)N[C@@H](CCCCN)C(=O)N[C@@H](CCCCN)C(=O)NCC(=O)NCC(=O)N[C@@H](CSC1CC(=O)N(CCC(=O)NCCOCCOCCOCCOCCOCCOCCOCCOCCOCCOCCOCCOCCOCCOCCOCCOCCOCCOCCOCCOCCOCCOCCOCCOC)C1=O)C(=O)O)[C@@H](C)CC)[C@@H](C)CC)[C@@H](C)CC)[C@@H](C)CC)[C@@H](C)CC)[C@@H](C)CC` (stereo partly shown) [PEP 318 PEG 24] (H-GGHIRRIIRKIIHIIKKGGC(X2)-OH; C-terminus assumed), 4.6 µM (≈ 16.1 µg/mL). On the same count and under the same terms, the figure for `CC[C@H](C)[C@H](NC(=O)[C@H](Cc1c[nH]cn1)NC(=O)CNC(=O)CN)C(=O)N[C@@H](CCCNC(=N)N)C(=O)N[C@@H](CCCNC(=N)N)C(=O)N[C@H](C(=O)N[C@H](C(=O)N[C@@H](CCCNC(=N)N)C(=O)N[C@@H](CCCCN)C(=O)N[C@H](C(=O)N[C@H](C(=O)N[C@@H](Cc1c[nH]cn1)C(=O)N[C@H](C(=O)N[C@H](C(=O)N[C@@H](CCCCN)C(=O)N[C@@H](CCCCN)C(=O)NCC(=O)NCC(=O)N[C@@H](CSC1CC(=O)N(CCC(=O)NCCOCCOCCOCCOCCOCCOCCOCCOCCOCCOCCOCCOCCOCCOCCOCCOCCOCCOCCOCCOCCOCCOCCOCCOCCOCCOCCOCCOCCOCCOCCOCCOCCOCCOCCOCCOC)C1=O)C(=O)O)[C@@H](C)CC)[C@@H](C)CC)[C@@H](C)CC)[C@@H](C)CC)[C@@H](C)CC)[C@@H](C)CC` (stereo partly shown) [PEP 318 PEG 36] (H-GGHIRRIIRKIIHIIKKGGC(X3)-OH; C-terminus assumed) is 7.9 µM (≈ 31.9 µg/mL); for `CC[C@H](C)[C@H](NC(=O)[C@H](Cc1c[nH]cn1)NC(=O)CNC(=O)CN)C(=O)N[C@@H](CCCNC(=N)N)C(=O)N[C@@H](CCCNC(=N)N)C(=O)N[C@H](C(=O)N[C@H](C(=O)N[C@@H](CCCNC(=N)N)C(=O)N[C@@H](CCCCN)C(=O)N[C@H](C(=O)N[C@H](C(=O)N[C@@H](Cc1c[nH]cn1)C(=O)N[C@H](C(=O)N[C@H](C(=O)N[C@@H](CCCCN)C(=O)N[C@@H](CCCCN)C(=O)NCC(=O)NCC(=O)N[C@@H](CSC1CC(=O)N(CCC(=O)NCCOCCOCCOCCOCCOCCOCCOCCOCCOCCOCCOCCOCCOCCOCCOCCOCCOCCOCCOCCOCCOCCOCCOCCOCCOCCOCCOCCOCCOCCOCCOCCOCCOCCOCCOCCOCCOCCOCCOCCOCCOCCOCCOCCOCCOCCOCCOCCOC)C1=O)C(=O)O)[C@@H](C)CC)[C@@H](C)CC)[C@@H](C)CC)[C@@H](C)CC)[C@@H](C)CC)[C@@H](C)CC` (stereo partly shown) [PEP 318 PEG 48] (H-GGHIRRIIRKIIHIIKKGGC(X4)-OH; C-terminus assumed) it is 7 µM (≈ 32 µg/mL); for “GGHGILAWKWAWWAWRR [PEP 190, GGHGILAWKWAWWAWRR]” it is 15 µM. As to “GGHGIRRIIRKIIHIIKK-NH2 (C-terminus assumed) [PEP 188, GGHGIRRIIRKIIHIIKK]”, the “MIC Se” value is 0.9 µM.

“GGHGRLARIVVIRVAR [PEP 191, GGHGRLARIVVIRVAR]”: the “MIC Se” value is 37 µM.

Turning to “GGHGRRWKIVVIRWRRGGC [PEP 321, GGHGRRWKIVVIRWRRGGC]”, the “MIC Se” value stood at 7.1 µM.

Regarding “GGHGVRRFPWWWPFLRR [PEP 189, GGHGVRRFPWWWPFLRR]”, the “MIC Se” value amounted to 7.2 µM. Same read-out and setting: the figure for GGHGWRWYCR [PEP 204, GGHGWRWYCR] is 6.3 µM; for GGHGWRWYCRGGK [PEP 323, GGHGWRWYCRGGK] it is 5.3 µM. For GGHIRRIIRKIIHIIKKGGC [PEP 318], the “MIC Se” value is 3.5 µM. With “GGHRRWKIVVIRWRRGGC [PEP 314, GGHRRWKIVVIRWRRGGC]”, the “MIC Se” value turned out to be 3.7 µM. GGHWRWYCRGGK [PEP 322, GGHWRWYCRGGK]: the “MIC Se” value was 2.7 µM.

Still in this assay, the particulars now being: Mueller Hinton Broth.
With DOTA-Ampicillin [DOTAMP], the “MIC Se” value is 10.6 µM.

In the case of “GGHC-Amikacin (also: amikacin conjugated, site not given here) [GGHCAMIK]”, the “MIC Se” value was determined as 16.7 µM.
